Results published in publication PMC12457599, “Targeting Acinetobacter baumannii lipase by coniferous species through metabolomics supported approach” (Scientific Reports, 2025).

Tested on: A. baumannii lipolytic activity
Conditions: ratio of IC50 values
From the text: Lipolytic inhibition (%) = 100 - remaining lipolytic activity.

O=c1cc(-c2ccc(O)cc2)oc2c(-c3c(O)cc(O)c4c(=O)cc(-c5ccc(O)cc5)oc34)c(O)cc(O)c12 [Cupressuflavone (C4), cupressuflavone]
times more potent against A. baumannii lipases compared to orlistat: approximately 3.89 times
